The text below walks through data of the RNAGym collection of RNA variant scans (doi:10.7554/elife.90254).

The source gives no read counts; variants with many changes may rest on few reads.

First the molecules themselves.
B1: LINE1-mini (parent)
chain: GGCAGAGCUCAACACAGCGUGGCAAAGUGGCUGUGGCUAGACUGCC

The series covers variants of B1. The experiment in a line: self-cleavage, relative activity (ratio to wild type); higher = more cleavage; in vitro, sequencing; the parent is a self-cleaving ribozyme.
Regarding A4G G5U C10A G22U U38C, the self-cleavage is 0.03.
With A4G G36A C37G the figure was 0.04; with A4U G5U G22C C31A U32C C45A C46A, 0.12.
The figure for A4U U9C C15G C37A is 0.05; for A4G G29A U43G G44A it is 0.03; for A4G U20C G35U A39C it is 0.02.
With A4G C18A A26G U34A G44U the figure was 0.06.
For A4U G27A U28A, the self-cleavage came to 0.06.
For the variant A4U A16C G27A, the self-cleavage came out at 0.03.
With A4U A16C G21C G27C the figure was 0.95; with A4U G7A A11G A26G G30A, 0.04; with A4G C18A C23A U32A G44A, 0.06.
On to A4U C8A G19C G33A C46G, for which the self-cleavage came out at 0.07.
With A4U U28C G29U U43C C46U, the self-cleavage came to 0.12.
For A4G G17U G35A G40U C42U, the self-cleavage turned out to be 0.05.
Turning to A4G G5U C15G G27A G29U U34G G40U C46U, the self-cleavage turned out to be 0.01.
The figure for A4U G27A C46A is 0.12.
Consider A4U G19A U20G, for which the self-cleavage was found to be 0.05.
Regarding A4U C8A C23U U32G C46A, the self-cleavage is 0.17.
With A4U C13G G27C the figure was 0.03; with G5A A11G A14C C37G, 0.03.
The figure for A4G C18G U28C U34C is 0.16; for A4U C8G C15G A16U it is 0.03.
With A4U U38A G44C, the self-cleavage was determined as 0.09.
Regarding A4U A6G G30C A39G, the self-cleavage is 0.31.
With A4U C23G G36U, the self-cleavage came to 0.08.
For the variant A4U C23G G36A, the self-cleavage came to 0.01.
Regarding A4U C23U A39U, the self-cleavage is 0.03.
As to A4U G17A G33C A41U, the self-cleavage came out at 0.04.
With A4U G19C A26C C46A the figure was 0.09; with A4G G7U A25C G36A, 0.1; with A4U C13A G22A A24U A26G G33A C45A, 0.07.
With A4U A24U C42G the figure was 0.08; with A4G C23A A25G U28C G33U U38A C45U, 0.04; with A4G G27C C37A, 0.04.
The figure for A4G U9A A14C is 0.24; for A4G G19A G21C it is 0.27; for A4G G30U C37U A39U G44C it is 0.
Regarding A4U C13A G22A, the self-cleavage turned out to be 0.12.
As to A4U A6C C23A U28C, the self-cleavage turned out to be 0.02.
With A4G G5A A12U G36A the figure was 0.05.
The figure for A4G U28G U34G G40U is 0.03; for A4U C42U G44C it is 0.11.
With A4U C10A U28C G40U the figure was 0.06; with A4G G27A G29A U43A C46G, 0.06.
As for A4U G5C A12C G40C, the self-cleavage turned out to be 0.07.
Regarding A4U G5A C37G A39C, the self-cleavage is 0.09.
Regarding A4U G19C C46U, the self-cleavage turned out to be 0.04.
As for A4G U9G G22U, the self-cleavage worked out at 0.16.
As for A4U C8A G21A, the self-cleavage stood at 0.65.
With A4U G21A A26G C46A the figure was 0.16; with A4U G5C A16U G33U C45G, 0.09; with G5A A11C A12C G21U C45U, 0.01.
The figure for A4G G27A G35C is 0.1.
With A4U U28C U38C the figure was 0.03; with A4G G7C A12U C45A, 0.06; with A4U C10A U28C, 0.04.
Turning to A4G G7U G19U, the self-cleavage was 0.12.
A4U G35U C45A: the self-cleavage was found to be 0.06.
Take A4U G17A U20C G33C C42G: the self-cleavage was found to be 0.
In the case of A4G U9A C10A G21U, the self-cleavage came out at 0.02.
With A4U C13A C23A C31U G33U the figure was 0.02.
The figure for A4U G7C G19U U20A G29U U32G C45G is 0.04; for A4U G29U C37G it is 0.43.
On to A4U C13U G22C G30U C45G, for which the self-cleavage is 0.04.
As for A4U G21A G22C C23G U34G C45G, the self-cleavage was found to be 0.02.
The figure for A4U A11C C13U G21A is 0.02.
Consider A4U U9A C42U, for which the self-cleavage turned out to be 0.16.
Regarding A4U A12U C13A C45A, the self-cleavage came out at 0.13.
With A4U G21U C46A the figure was 0.12.
Consider A4U G17C A41C, for which the self-cleavage is 0.01.
In the case of A4U U9G G19A G44A, the self-cleavage is 0.29.
As for A4U G7A U9G A16U, the self-cleavage was 0.03.
For A4U C31A U32A, the self-cleavage was determined as 0.03.
As for A4U C10G G36A A41G, the self-cleavage was 0.03.
Regarding A4U A11U G22U G27A, the self-cleavage is 0.
With A4U U20C G30A C42A, the self-cleavage worked out at 0.
As for A4U C23G U28A G44A, the self-cleavage turned out to be 0.17.
As for A4U U9C A12G G29A, the self-cleavage turned out to be 0.
The figure for A4U U9A G27U C42A is 0.21.
Regarding A4G U32A G33A U43A, the self-cleavage is 0.03.
As for A4U C10G A26G G29U, the self-cleavage came to 0.01.
With A4U A12U G17C G40C the figure was 0.08; with A4U A12G U32G C42U, 0.02; with A4U G22C G35U, 0.05.
With A4U A24G G35C, the self-cleavage was 0.01.
With A4U A25G G27C U32C the figure was 0.09; with A4G C18G A26U U32A G44A, 0.04.
Turning to A4U U20C C31U U32A A41U, the self-cleavage was found to be 0.03.
The figure for A4U U9A G19A is 0.2.
A4U C15U U20G G36A C37U: the self-cleavage was determined as 0.07.
The figure for A4U U9G A12G G44A is 0.01; for A4U A14C G29C it is 0.02.
For A4U C10A G30C C31A G44U, the self-cleavage turned out to be 0.01.
With A4G G7A G27C the figure was 0.05; with G5A A6G G44C, 0.08; with A4U C13A G17A A25U G44U, 0.07.
The figure for A4G G5U C23G G29C A39G is 0.02; for A4G G7U U28G it is 0.03.
With A4U G36A A41G C45U the figure was 0.28; with A4G G27C U28C, 0.18.
Take A4U A25G G30A G33U C37A C42G C46G: the self-cleavage turned out to be 0.1.
Regarding A4U C23A C45A, the self-cleavage worked out at 0.14.
A4U U20G G27A G30C: the self-cleavage is 0.03.
In the case of A4G C31A G35U C45U C46U, the self-cleavage was found to be 0.08.
With A4U G27U C42A the figure was 0.03; with A4G G19U A39G, 0.08.
With A4U G19U U28A U38C the figure was 0.03; with A4U G35C A39U, 0.04; with A4U G5A U9A A14U C15G C45U, 0.06.
The figure for A4U A14G G30U U43C is 0.04.
Turning to A4U G7A G27C A39U, the self-cleavage is 0.83.
On to A4U C23U A26U, for which the self-cleavage is 0.22.
Take A4G G33U A39G: the self-cleavage was 0.48.
With A4U A6G G7C C15G U38G the figure was 0.01; with A4G G7U G19C A25G U34G U38G, 0.
As to A4G C15U G35C, the self-cleavage was 0.04.
The figure for A4G U38G C45U is 0.01; for A4U C8A A14C it is 0.07; for A4G C18U U28A G30A it is 0.92.
The figure for A4G G7A C15U A25U G35C U38A is 0.37; for A4G G33C C37U it is 0.01.
On to A4U A6C G19U U20C U32G, for which the self-cleavage is 0.05.
On to A4G G17C G36U, for which the self-cleavage was determined as 0.19.
With A4U G36U G40U the figure was 0.11; with A4G C18G A26C, 0.06.
A4U G17C U38G: the self-cleavage amounted to 0.
The figure for A4U G17C C18A G27A is 0.02; for A4U C18U G40A U43G it is 0.04.
For A4U A11G C13A, the self-cleavage worked out at 0.01.
The figure for A4U G5U C15A A25C is 0.03; for A4U A6U A12G C31G G40U U43A it is 0.01; for A4G C18A A26U G40A it is 0.14.
With A4U C15A G29A G30U the figure was 0.06.
With A4G G22C C23A C45A the figure was 0.25; with A4U U28A U34A, 0.03; with A4G G7C C8G C10U U28G C42G, 0.01.
As for A4U A14C A24G, the self-cleavage stood at 0.03.
Consider G5A A11G G21U C42A, for which the self-cleavage was 0.
The figure for A4U U28C C46G is 0.2; for G5A A6G A12C C13A C15A G22C G33A it is 0.01.
The figure for A4U C10U C13U C31U U38C C45U is 0.06; for A4U G5U U9G A14G C45G it is 0.11; for A4G U9G A16G A26G it is 0.04.
With A4G C23G A24U A26U, the self-cleavage worked out at 0.16.
With A4U A26U C46A the figure was 0.35; with G5A A11G G19A G22A C23G A24C A25C C46U, 0.
Consider A4U G30C C45G, for which the self-cleavage turned out to be 0.07.
Take A4U A6U G7U G33A: the self-cleavage was 0.24.
With A4G U20G A26U G36U the figure was 0.05; with G5A A11C A16G A25G, 0.02; with A4U G22U G33A, 0.1.
With A4U G7C C42A the figure was 0.05; with A4G G5U C13A G17U, 0.06.
With A4U G5A U28G G40A, the self-cleavage stood at 0.02.
With A4U U9A A12C A14U C37A the figure was 0.02.
On to A4U C10A C46G, for which the self-cleavage was 0.03.
With A4G U32G U43A the figure was 0.07; with A4U G5A G7C U9G C10A, 0.05; with A4U G5A U9A C18G A26U G29A G36U, 0.39.
The figure for A4U A14C A24G G35U C46A is 0.01; for A4U G22C C45A it is 0; for A4U A16G U38C it is 0.14.
As for A4G G7A G17U G22A C23G A26G, the self-cleavage stood at 0.25.
For the variant A4G G7C C23U C31G, the self-cleavage amounted to 0.15.
Regarding A4U U9A C31G C46A, the self-cleavage turned out to be 0.01.
The figure for A4U G7C G19U is 0.07.
